Measurements reported in PubChem BioAssay AID1508623 (National Center for Advancing Translational Sciences (NCATS), 2021).
Among all 48,000 compounds or so, about 450 (0.94%) were called active. Another 19% or so got no clear call; they are omitted. Calls follow the shape of the dose curve; as a rule, active = well fitted inhibition curve with a large enough effect; inconclusive = small, poorly fitted or top-dose-only effect; inactive = no such curve, though single readings can be large or run the other way. This is one part of the list.

Test: Primary qHTS for Identification of Small Molecule Inhibitors of Huntingtin Promoter Activity; also: nearly all actives have a fitted effect of over 50% in size
Conditions: HEK293 HTT promoter firefly luciferase reporter (activity 0% = vehicle and -100% = no light), 24 h; series mostly up to 57.5 µM; activity change, negative = inhibition: at the top concentration
In short: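 Luminescence was read after Dual-Glo reagent and a 10 min room-temperature incubation. Values were normalized to vehicle (0% activity) and zero RLU (-100% activity). Reporter HEK293 cells had been exposed to compounds (up to 57.5 uM final) for 24 h.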

Activity change, negative = inhibition, inactive:
CCOc1ccc(C(=O)Nc2ccccc2C(=O)OCc2cc(=O)n3nc(C4CC4)sc3n2)cc1 7.35%
Cc1cccc2c1-c1sc(C(=O)NCc3ccc(Cl)cc3)cc1CO2 2.24%
Cc1ccc(-c2nc(S(=O)(=O)c3ccc(C)cc3)c(SCC(=O)Nc3ccc(F)cc3)o2)cc1 -17.7%
CCN(Cc1ccccc1)C(=O)c1cc2c(=O)oc3ccc(C)cc3c2s1 -7.66%
CCc1ccc(S(=O)(=O)c2nnn3c2nc(Nc2cc(OC)cc(OC)c2)c2cc(Cl)ccc23)cc1 1.15%
COCCn1c(C)cc(O)c(C(c2ccc(Cl)cc2)N2CCN(c3ccccc3)CC2)c1=O (stereo not drawn) -5.03%
CN1C(C(=O)c2ccccc2)=C(NC(=O)c2ccccc2Br)c2ccccc2S1(=O)=O 1.51%
COc1ccc(NC(=O)Nc2cccc(OCc3cc(=O)n4cccc(C)c4n3)c2)c(OC)c1 -6.91%
CCCCCSc1nnc2c(n1)OC(CC)Nc1ccc(Br)cc1-2 (stereo not drawn) -17%
Cc1nc2ccc(S(=O)(=O)NC(C(=O)N3CCN(c4ccc(Cl)cc4)CC3)C(C)C)cc2s1 (stereo not drawn) -22.7%
CCc1ccc(NC(=O)Cc2csc(COc3cccc(C)c3)n2)cc1 -24.5%
O=c1n(Cc2ccc(Cl)cc2)c2ccccc2c2nc(-c3ccccc3)nn12 -12.1%
O=S(=O)(c1ccc2[nH]c3c(c2c1)CCCC3)N1CCN(c2cccc(C(F)(F)F)c2)CC1 -12.6%
Cc1cc(C)cc(Nc2nc3ccccc3n3cnnc23)c1 -6.64%
COc1cc(C2N=C(N)Nc3nc4ccccc4n32)ccc1OCC(=O)O (stereo not drawn) 12.8%
COc1ccc(C(=O)NCC(c2ccc(N(C)C)cc2)N2CCCC2)cc1 (stereo not drawn) -13.3%
CC(=O)c1ccc(N2CCN(c3nc4c(S(=O)(=O)c5ccc(C)c(C)c5)nnn4c4ccc(Cl)cc34)CC2)cc1 -16%
Cc1cc(C)cc(-n2ccnc2SCC(=O)Nc2ccc(C)cc2C)c1 -9.33%
CCC(=O)N1CCc2cc(Br)cc(S(=O)(=O)CCC(=O)N3CCN(c4ccc(OC)cc4)CC3)c21 -5.91%
O=C(CCCn1c(=O)c2ccccc2n(CC(=O)Nc2cccc(Cl)c2)c1=O)NCc1ccc2c(c1)OCO2 -10.1%
CCOc1ccc2oc(=O)cc(CN3CCN(Cc4ccc(F)cc4)CC3)c2c1 -17.5%
CCC(C(=O)Nc1cc(OC)ccc1OC)n1c(=O)c(C(F)(F)F)nc2ccccc21 (stereo not drawn) -8.28%
CCC(=O)Nc1ccccc1-c1nc2ccccc2n(C(C)C(=O)Nc2cccc(Cl)c2C)c1=O (stereo not drawn) -20.3%
CC(C)c1ccc(Nc2ncnc3c2nc2n3CCCC2)cc1 -18.6%
COc1cc(NC(=O)CNC(=O)Cn2ccc3ccccc3c2=O)cc(OC)c1OC -1.47%
Cc1ccc(Cc2cnc(NC(=O)C3Cc4ccc(C)cc4C(=O)O3)s2)cc1 (stereo not drawn) 3.1%
COc1ccc(/C=C/C(=O)c2ccc(OC)cc2OC)cc1 -0.467%
COc1ccc(C(CNC(=O)c2cccc([N+](=O)[O-])c2)N2CCOCC2)cc1 (stereo not drawn) -2.49%
CC(C(=O)O)c1ccc(C(=O)c2cccs2)cc1 (stereo not drawn) 13%
CCOc1ccc(S(=O)(=O)c2cn(C)c3ccccc3c2=O)cc1 -23.5%
CC(NC(=O)c1c2c(nc3ccccc13)C(=O)N(C1CCCCC1)C2)c1ccccc1 (stereo not drawn) -12.3%
Cc1ccc(CNC(=O)Cn2c(=O)ccc3cc(S(=O)(=O)N4CCCC4)ccc32)cc1 6.14%
CCN(C(=O)c1cccn(Cc2ccccc2C)c1=O)c1ccccc1 -16.8%
CN(C)c1ccc(NC(=O)CN2C(=O)c3ccccc3Sc3ccc(C(=O)N4CCCC4)cc32)cc1 -23.1%
CCOC(=O)C1CCN(C(=O)Cn2ncc3c4ccccc4n(Cc4ccccc4F)c3c2=O)CC1 -21.7%
Cc1ccc(NC(=O)CN2C(=O)CCn3nc(-c4cccn4C)cc32)c(Cl)c1 -20.2%
Cc1nn(CCCC(=O)NCc2cccc(Cl)c2)c(=O)c2c1sc1ccccc12 0.718%
Cc1nnc(NC(=O)CSc2nnc3c(n2)[nH]c2ccccc23)s1 -6.79%
Cc1cccc(N2CCN(CCCNC(=O)c3sc4ncccc4c3-n3cccc3)CC2C)c1 (stereo not drawn) 0%
O=c1n(Cc2ccc(F)cc2)nc2n1-c1cc(Cl)ccc1OC2 -8.85%
COc1ccc(NC(=O)C2CCN(c3nc4ccccc4nc3C(F)(F)F)CC2)cc1 -1.52%
COc1ccc(-c2cn3nc(N4CCC(C(=O)Nc5ccc(Cl)cc5C)CC4)sc3n2)cc1 -7.94%
COc1ccc(-n2nc(C(=O)NCCc3ccc(OC)c(OC)c3)c3c4ccccc4n(C)c3c2=O)cc1Cl -4.76%
O=C(Cn1cc(SCc2ccccc2)c2ccccc21)N1CCCCCC1 1.71%
Cc1ccc(-c2nc(SCC(=O)N3CCc4ccccc43)c3c(=O)n(C)c(=O)n(C)c3n2)cc1 7.2%
Cc1ccc(N2CCN(c3c(CN4CCCC4)c(=O)oc4ccccc34)CC2)c(C)c1 5.69%
Cc1ccc(S(=O)(=O)n2nc(C)c(S(=O)(=O)N3CCC(C)CC3)c2C)cc1 -7.93%
O=C(NCc1ccccc1)c1ccc2c(c1)N(Cc1cccc(Cl)c1)C(=O)c1ccccc1S2(=O)=O -13%
Cc1ccc2nc(-c3ccc(Cl)c(NC(=O)c4cccc([N+](=O)[O-])c4C)c3)oc2c1 10.9%
CCn1ccc2cc(S(=O)(=O)N3CCC(C(=O)NCc4ccc(OC)cc4)CC3)ccc21 0%
O=C(COCc1cc(-c2ccco2)on1)Nc1cccc(O)c1 8.82%
Cn1c(=O)c(=O)n(C)c2cc(S(=O)(=O)CCC(=O)Nc3cccc(C(F)(F)F)c3)ccc21 -5.05%
Cc1ccc(-c2nc3c(cnn3-c3ccccc3)c(=O)n2-c2cccc(Cl)c2)cc1 -14.6%
CN(C)S(=O)(=O)c1ccc2c(c1)N(CC(=O)N1CCN(c3cccc(Cl)c3)CC1)CCS2 -9.4%
COc1cc(OC)c(N(C)C(=O)C2CCCN(c3ncnc4c3nc3n4CCCCC3)C2)cc1Cl (stereo not drawn) -24.3%
COc1cc(NC(=O)Nc2nnc(N3CCCCCC3)s2)cc(OC)c1 2.63%
CC1CCCN(Cc2c(O)ccc3c(=O)c(Oc4ccc(C(C)(C)C)cc4)c(C(F)(F)F)oc23)C1 (stereo not drawn) -14.7%
CCOc1ccc(NC(=O)Cn2c(=O)n(Cc3ccccc3)c(=O)c3sc4ccccc4c32)cc1 -60.4%
Cc1cc(C)cc(NC(=O)CN2C(=O)CSc3ccc(S(=O)(=O)N4CCCC4)cc32)c1 -10.6%
CCOc1ccc(NC(=O)c2c(NC(=O)c3cccc(C)c3)sc3c2CCC3)cc1 -12.3%
O=C(NCC1CCN(Cc2cccc(F)c2)CC1)c1cc2ccc3cccnc3c2[nH]1 -1.85%
CC1=C(c2ccc(C(C)C)cc2)S(=O)(=O)N=C1N1CCC(C(=O)NCc2ccco2)CC1 -24.2%
Cc1ccc(CNC(=O)Cn2c(=O)cc(-c3ccccc3)c3c(C)nn(C)c32)cc1 0%
Cc1c(C(=O)NCCc2ccccc2)cccc1-n1cnc2cccnc21 -12%
CCc1ccc(NC(=O)CC2C(=O)N(c3ccc(OC)cc3)C(=O)N2Cc2ccc(OC)cc2)cc1 (stereo not drawn) -20.8%
COc1ccccc1CNC(=O)C1CCN(S(=O)(=O)c2c(C)noc2/C=C/c2cccs2)CC1 -20.1%
Cc1cc(=O)n(Cc2ccc(F)cc2Cl)c2c1c(C)nn2-c1ccccc1 -17.8%
CCn1c(=O)c2sccc2n2c(CCCC(=O)N3CCN(c4cc(C)ccc4C)CC3)nnc12 -14%
Cc1ccn2c(=O)c(C(=O)NCCc3ccc(S(N)(=O)=O)cc3)c(O)nc2c1 -12.9%
Cc1ccc(NCc2ccccc2-c2nnc(-c3ccccc3Cl)o2)cc1Cl 14.3%
COc1ccc(N2C(=O)CSC23C(=O)N(CC(=O)NCc2ccccc2)c2ccccc23)cc1 (stereo not drawn) -5.66%
COc1ccc(S(=O)(=O)NC2(C(F)(F)F)NC(=O)N(CCc3ccc(OC)c(OC)c3)C2=O)cc1 (stereo not drawn) -8.15%
CS(=O)(=O)NCCc1csc2nc(-c3ccccc3)nn12 -0.177%
Cc1cc(Nc2ccccc2Cl)n2nc(-c3ccco3)nc2n1 -19.1%
Cc1ccc2onc(CC(=O)Nc3cc(F)ccc3F)c2c1 28%
Cc1ccc(-c2cc(C(F)(F)F)n3nc(C(=O)Nc4sc5c(c4C#N)CCC(C)C5)cc3n2)cc1 (stereo not drawn) -4.31% [at 11.5 µM]
O=C(CSc1nnc2scc(-c3ccc(Cl)cc3)n12)Nc1ccccc1F -20.8%
CCOc1cccc(CC(=O)N2CCc3c([nH]c4ccccc34)C2c2ccc(C)cc2)c1OCC (stereo not drawn) -24%
COc1ccc(C(=O)Nc2ccc3c(c2)N(C2CCCC2)C(=O)c2ccccc2S3)cc1OC -22.6%
COc1cc(C(=O)Nc2ccc(Cl)c(-c3nc4ncccc4o3)c2)cc(OC)c1OC 3.72%
Cc1ccccc1CNC(=O)CCCn1c(=O)c2cccn2c2ccccc21 4.38%
Cc1cccc2c1-c1sc(C(=O)N3CCN(c4ccc(F)cc4)CC3)cc1CO2 5.94%
COCCNC(=O)CN1C(=O)COc2ccc(S(=O)(=O)N3CCOCC3)cc21 -8.64%
CCc1ccccc1N(C)C(=O)Nc1cn(CC(C)C)c(=O)c2ccccc12 -9.87%
C=Cc1ccc(CSc2nc(-c3ccccc3C)nc3c2Cc2c(CO)cnc(C)c2O3)cc1 -11.9%
CCn1cc(C(=O)OCC(=O)Nc2cccc(Cl)c2C)c(=O)c2ccc(C)nc21 -6.72%
CCOc1ccc(CNC(=O)CCn2c(=O)c3cccn3c3cccnc32)cc1 0.75%
O=C(CSc1nc(=O)n(Cc2ccco2)c2c1CCC2)NCc1ccccc1Cl 3.61%
N#Cc1ccc(NC(=O)COCc2cc(-c3ccc4c(c3)OCO4)on2)cc1 -9.17%
COC(=O)c1scc(-c2ccc(C)cc2)c1S(=O)(=O)Nc1ccc(OC(F)(F)F)cc1 0.0122%
CCOc1ccc(N2CC(NC(=O)c3ccc(S(=O)(=O)N4CCOCC4)cc3)CC2=O)cc1 (stereo not drawn) -17.5%
Cc1cc(=O)n2nc(N3CCC(C(=O)NCCCOC(C)C)CC3)sc2n1 -13.1%
O=C(CSc1nnc(CNC(=O)c2ccccc2)n1-c1ccc(F)cc1)Nc1ccccc1F -10.1%
